Assay results: PubChem BioAssay AID1745845 (National Center for Advancing Translational Sciences (NCATS), 2022)
Values joined by “and” are separate entries in the source; they are usually repeats but may differ in a detail not shown here. Equal values may be shown once. About 2,600 (0.72%) of roughly 360,000 compounds were called active. The shares of active, inactive and inconclusive entries below differ from those in the screen. Calls come from the whole dose curve; as a rule, active = well fitted inhibition curve with a large enough effect; inconclusive = small, poorly fitted or top-dose-only effect; inactive = no such curve, though single readings can be large or run the other way. Where the call is inconclusive, the potency comes from a doubtful curve fit.

Assay: Primary qHTS for Inhibitors of ATXN expression; note: nearly all actives have a fitted effect of over 55% in size
Conditions: HEK-293 ATXN2-luciferase reporter, luminescence, 24 h; series mostly up to 57 µM
In short: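 ATXN2-luciferase reporter cells (luciferase flanked by upstream and downstream ATXN2 gene portions) were treated 24 h at 37 °C with compounds at up to 57 uM. SteadyGlo luminescence gave expression; GF-AFC fluorescence gave viability.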
Potency is the fitted concentration of half-maximal effect; tags give direction and shape of the fitted curve.

SMILES	Potency
CC1=C(C(N)=O)C(c2cccc(F)c2)n2nc(SCc3ccccc3)nc2N1 (stereo unspecified)	inactive
CC(=O)N1Cc2cc(C(=O)NCc3cccc(F)c3)nc(-c3cccc(C4=CCCCC4)c3)c2[C@H]1CCO	inconclusive: 39.8 µM [inhibitor, single point]
CN1CCN(Cc2cc(Cl)c3cccnc3c2OC(=O)c2cccs2)CC1	inconclusive: 28.2 µM [inhibitor, single point]
CCCCN(C)C(=O)CN1C(=O)CCn2nc(-c3cn(C)c4ccccc34)cc21	inactive
COc1ccc(N(C)S(=O)(=O)c2cccc(C(=O)OCC(=O)c3c(N)n(C)c(=O)n(C)c3=O)c2)cc1	inconclusive: 39.8 µM [inhibitor, single point]
OCC1(Cc2ccc(F)cc2F)CCCN(CCCc2ccccc2)C1 (stereo unspecified)	inactive
Cc1cccc(NC(=O)c2ccc([N+](=O)[O-])s2)c1C	inactive
COc1cccc(Nc2nc(C(N)COCc3ccccc3)cs2)n1 (stereo unspecified)	inactive
CC1CCCN(S(=O)(=O)c2ccc(C(=O)Nc3sc4c(c3C(N)=O)CCN(C)C4)cc2)C1 (stereo unspecified)	inconclusive: 25.1 µM [inhibitor, partial curve]
Cc1ccc(OCC(=O)Nc2oc(-c3ccccc3)c(-c3ccccc3)c2C#N)cc1	inactive
C[C@H](CO)N1C[C@H](C)[C@@H](CN(C)C(=O)Nc2ccc(C(F)(F)F)cc2)Oc2c(NC(=O)NC3CCCCC3)cccc2C1=O	inconclusive: 39.8 µM [inhibitor, single point]
Cc1ccc(-n2c(C)cc(C(=O)CSc3nnc4ccccn34)c2C)cc1	inconclusive: 28.2 µM [inhibitor, single point]
O=C(CSc1nc2ncc(Cl)cc2[nH]1)Nc1cccc(F)c1	inconclusive: 31.6 µM [inhibitor, single point]
c1cncc(-c2nc(NCC3COc4ccccc4O3)c3ccccc3n2)c1 (stereo unspecified)	inconclusive: 22.4 µM [inhibitor, partial curve, poor fit]
Nc1cc2c3c(cccc3c1)C(=O)N(CCN1CCCC1)C2=O	inconclusive: 12.6 µM [inhibitor, partial curve, poor fit]
CC1CC2(C)Oc3ccccc3CC2C(C)C1CNCCCN(C)C (stereo unspecified)	active: 14.1 µM
CC1C(=O)N(Cc2cn(CCC3OCCCO3)nn2)CCS(=O)(=O)N1Cc1ccc(-c2ccc(F)cc2)cc1 (stereo unspecified)	inconclusive: 39.8 µM [inhibitor, single point]
CCCc1ccc(C(=O)O/N=C(\N)c2ccccn2)cc1	inconclusive: 14.1 µM [inhibitor, partial curve, poor fit]
c1ccc(/N=C2\N=C(Nc3ccccn3)c3ccccc32)nc1	inconclusive: 0.355 µM [inhibitor, full curve, poor fit]
Cc1oc(-c2cccc(Cl)c2)nc1CN1CCCC(C(=O)N2CCN(c3ccc(F)cc3)CC2)C1 (stereo unspecified)	inconclusive: 14.1 µM [inhibitor, partial curve, poor fit]
CCN(CC)CCN(C(=O)c1ccc2c(c1)OCCO2)c1nc2c(Cl)cccc2s1	inactive
CCC(C)c1ccc(NC(=O)C2CC3CCC2C3)cc1 (stereo unspecified)	inactive

SMILES	Potency
CCOCCCNC(=S)NCCNc1nc2c(C)cccc2cc1C#N	inconclusive: 25.1 µM [inhibitor, partial curve, poor fit]
Cc1cc(S(=O)(=O)N2CCN(c3ccccc3F)CC2)ccc1-n1cnnn1	inactive
CCCCCC(=O)Nc1ccc(NC(=O)c2cc3ccccc3o2)c(OC)c1	inconclusive: 14.1 µM [inhibitor, partial curve, poor fit]
Cn1cc(C(=O)c2ccc(Cl)cc2Cl)cc1C(=O)NN	inactive
O=C(CSc1nc2c([nH]c3ccccc32)c(=O)n1-c1cccc(Cl)c1)N1CCOCC1	inconclusive: 35.5 µM [inhibitor, partial curve, poor fit]
Cc1cccc(NC(=O)c2sc3nc4c(c(-c5cccs5)c3c2N)CN(C)CC4)c1	inconclusive: 39.8 µM [inhibitor, partial curve, poor fit]
Cc1oc2ccc(O)c(CN3CCN(C)CC3)c2c1C(=O)Nc1cccc(C(F)(F)F)c1	inactive
O=C(c1ccc(N2CCN(C(=O)c3ccc(F)cc3F)CC2)cc1)c1cccc(F)c1	inconclusive: 11.2 µM [inhibitor, partial curve, poor fit]
O=C(CN1N=C(c2ccccc2)CCC1=O)NCc1ccccc1	inactive
Cc1ccc(C(=O)O/N=C(\N)c2ccccn2)c(C)c1	inconclusive: 1.26 µM [inhibitor, full curve, poor fit]
O=C(Nc1ccc2oc(-c3ccc4ccccc4c3)nc2c1)c1ccc2c(c1)OCCO2	inconclusive: 22.4 µM [inhibitor, single point]
CC(C)c1noc(-c2ccccc2OCC(=O)Nc2ccccc2[N+](=O)[O-])n1	inconclusive: 39.8 µM [inhibitor, single point]
O=C(CN1C(=O)NC2(CCCC2)C1=O)N1CCN(S(=O)(=O)c2cc(Cl)ccc2Cl)CC1	inactive
Cc1nn2c(NCCN3CCOCC3)c3c(nc2c1-c1ccccc1)CCCC3	inconclusive: 8.91 µM [inhibitor, partial curve, poor fit]
O=S1(=O)CC(N2CCC(Cc3ccccc3)CC2)CN1C1CCCCC1 (stereo unspecified)	inactive
Cc1cccc(N=Nc2c(N)n[nH]c2-c2ccc(Cl)cc2)c1	inconclusive: 35.5 µM [inhibitor, single point]
COc1ccc(C(=O)/C=C2\C(=O)Nc3ccc(Br)cc32)cc1	inconclusive: 37.7 µM [inhibitor, single point]
CCCCCc1c2c(cc(O)c1C(=O)O)OC(=O)c1cc(C(=O)CCCC)c(OC)cc1O2	inconclusive: 39.8 µM [inhibitor, single point]
Cc1ccc(/C=C/C(=O)C2C(=O)c3ccccc3C2=O)cc1	inconclusive: 22.4 µM [inhibitor, single point]
CCOC(=O)CN(Cc1ccccc1)C(C(=O)NC1CCCCC1)c1ccccc1 (stereo unspecified)	inconclusive: 25.1 µM [inhibitor, single point]
CC1(C(=O)O)CCC(C(=O)Nc2ccccc2O)C1(C)C (stereo unspecified)	inactive
CC[C@H](c1ccc(O)cc1)[C@@H](CC)c1ccc(O)cc1	inconclusive: 35.5 µM [inhibitor, partial curve]

SMILES	Potency
COc1cc(NC(=O)c2cncc(-c3ccc(C#N)cc3)c2)cc(C(=O)Nc2cccc(C(F)(F)F)c2)c1	inconclusive: 10 µM [inhibitor, partial curve] and inconclusive: 2.82 µM [inhibitor, partial curve]
COc1ccc([N+](=O)[O-])c(S(=O)(=O)c2ccc(Cl)cc2)n1	inconclusive: 39.8 µM [inhibitor, single point]
CCCCC[C@@H](C)N1C[C@@H](COCc2ccccc2)Oc2cc(N3CC[C@@H](O)C3)ccc2S1(=O)=O	inconclusive: 35.5 µM [inhibitor, single point]
Cc1ccc2c(c1)NC(=O)C(CC(=O)NCCCN1CCN(c3cc(C)ccc3C)CC1)O2 (stereo unspecified)	inconclusive: 15.8 µM [inhibitor, partial curve, poor fit]
O=C(NC1=NCCS1)c1cc2ccccc2o1	inconclusive: 12.6 µM [inhibitor, partial curve, poor fit]
Nc1ccc2c(O)cc(S(=O)(=O)O)cc2c1	inconclusive: 39.8 µM [inhibitor, single point]
COc1cccc(NC(=O)C2CC(=O)N(c3ccc(Br)cc3)C2)c1 (stereo unspecified)	inactive
O=C1C(c2ccncc2)=C(O)c2ccccc21	inconclusive: 25.1 µM [inhibitor, single point]
N#CC(NC(=O)OCc1ccccc1)c1ccccc1 (stereo unspecified)	inactive
COc1ccc(C(=O)NC(=S)NNC(=O)c2cnccn2)cc1	inconclusive: 15.8 µM [inhibitor, partial curve]
O=[N+]([O-])c1cc(Cl)c(O)c2ncccc12	active: 20 µM
COC(=O)[C@]12CCCCC=C1N(Cc1ccc(Cl)cc1Cl)C(=O)[C@H](CC(=O)NCc1ccc(OC)c(OC)c1)C2	inconclusive: 25.1 µM [inhibitor, partial curve]
CC(C)(C)C(=O)Nc1ccccc1C(=O)Nc1cc(Cl)ccc1Cl	inactive
Cn1cccc1Cc1nnc(SCC(=O)Nc2ccc(Cl)cc2)n1-c1ccc(F)cc1	inconclusive: 22.4 µM [inhibitor, single point]
CCc1cccc(NS(=O)(=O)c2ccc3c(c2)NC(=O)C(C)S3)c1 (stereo unspecified)	inactive
Cn1c(=O)n(C)c2cc(N3CCCCC3)c(NC(=O)Nc3ccc(Br)cc3)cc21	inactive
COC(=O)[C@]12CCCCC=C1N(Cc1ccco1)C(=O)[C@H](CC(=O)NCc1cccc(C(F)(F)F)c1)C2	inactive
O=C(COc1cccc2cccnc12)N/N=C/c1cccn1-c1ccc(F)cc1	inconclusive: 39.8 µM [inhibitor, single point]
COc1cccc(CNC(=O)c2cc3cc(C)ccc3n2C)c1	inactive
N#CCC(=O)NNC(=S)Nc1ccccc1C(F)(F)F	inconclusive: 42.3 µM [inhibitor, partial curve, poor fit]
COC(=O)c1cc(NC(=O)c2cc(-c3ccc(C(F)(F)F)cc3)oc2C(F)(F)F)ccc1N1CCOCC1	inconclusive: 25.1 µM [inhibitor, partial curve, poor fit]
CCCN(C(=O)c1c(C)oc2ncn(CC(C)C)c(=O)c12)c1ccccc1C	inactive
